In patent US20260258397A1, “REAGENTS AND SYSTEMS FOR […]” (priority 2023, published 2026):

Columns and labels:
[1] = molecular target: T1, PYR1^PIRI (Arabidopsis thaliana, UniProt O49686, A160T/E130G/F159T/K59R/N119S/S122Q/S92M/V174A); experiment: cell-based; assay type: cell-based; conditions: for Top: PYR1-PIRI, fit top of GFP fluorescence response
T1 construct: expressed in transfected cells; host or cells: S. cerevisiae (2µ plasmid)
T1 sequence (O49686 1-191 K59R/S92M/N119S/S122Q/E130G/F159T/A160T/V174A): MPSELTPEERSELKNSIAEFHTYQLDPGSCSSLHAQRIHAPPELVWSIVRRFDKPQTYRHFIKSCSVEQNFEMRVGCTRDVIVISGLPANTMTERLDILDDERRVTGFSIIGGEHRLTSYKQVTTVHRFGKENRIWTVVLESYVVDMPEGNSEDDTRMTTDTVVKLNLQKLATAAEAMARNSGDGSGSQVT
T1 sequence (Q9CAJ0 178-511 partner): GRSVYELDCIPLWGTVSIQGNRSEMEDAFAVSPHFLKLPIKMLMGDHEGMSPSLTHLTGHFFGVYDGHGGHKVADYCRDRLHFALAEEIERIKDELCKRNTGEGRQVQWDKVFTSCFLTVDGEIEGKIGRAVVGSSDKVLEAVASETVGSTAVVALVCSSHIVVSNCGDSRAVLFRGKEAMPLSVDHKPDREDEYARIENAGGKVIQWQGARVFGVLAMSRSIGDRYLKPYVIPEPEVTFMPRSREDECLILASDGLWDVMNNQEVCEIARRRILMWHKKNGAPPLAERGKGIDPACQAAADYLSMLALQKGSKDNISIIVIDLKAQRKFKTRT
Source text: (§1) PYR1 variants were used to drive gene expression in an inducible genetic circuit by fusing a zinc finger DNA binding domain (Z4^32) to the N-terminus of PYR1, and the VP64 activation domain 33 to the N-terminus of ΔN-HAB1. The SV40 nuclear localization signal was also fused to the N-terminus of PYR1. A single 2u plasmid was used to express SV40-Z4DBD-PYR1 and VP64-HAB1, while the GFP expression cassette (Z44-CYCcore-GFP-CYC 1term) was integrated at the YPRCΔ15 site on chromosome XVI. GFP fluorescence induced by each circuit was measured 12 h after ligand addition to 1 mL cultures, 30° C. Fluorescence was measured by flow cytometry. Briefly, 50 μL of resuspended cells were transferred to a 96-well plate for analysis. The fluorescence intensity of each cell was measured using a BD Accuri C6 flow cytometer equipped with auto-loading. The forward scatter, side scatter, and GFP fluorescence (Ex/Em 488/533 nm) were recorded for a minimum of 10,000 events.
(§2) Transformed yeast cells were acquired by first inoculating 5 mL of liquid media and incubating in a shaker incubator overnight at 30° C. Cells from the overnight culture were then used to inoculate a 50 mL culture with an initial cell density of 5×10^6 cells/mL. This culture was grown at 30° C. with 200 rpm shaking until ~2×10^7 cells/mL were produced, approximately 3 to 5 hours. Cells were harvested by centrifugation at 4000 rpm for 5 min, washed with 25 mL sterile, deionized water, resuspended in 1 mL of 100 mM LiAc, and transferred to a 1.5 mL tube, producing a cell suspension with approximately 10^9 cells/mL. The cell suspension was briefly mixed by vortexing and 100 μL was transferred into a clean 1.5 mL tube for each transformation. Cells were pelleted at 13000 rpm for 15 sec and the supernatant was removed. A transformation mixture of 240 μL PEG (50% w/v), 36 μL 1.0 M LiAc, 50 μL salmon sperm DNA (2.0 mg/ml), plasmid, and sterile water were added to the cell pellet and mixed by vortexing for 1 min (total volume of 360 μL). The mixed transformation solution was then heat shocked at 42° C. for 40 min. Post heat-shock, cells were recovered by centrifugation at 8000 rpm for 30 sec. Cells resuspended in 400 μL sterile water were plated on appropriate selection media, in this case agar-SD media without uracil. Plates were incubated at 30° C. until mature colonies were formed.
(§3) Three single transformants were picked from selection plates, inoculated in 2 mL of SD-Ura containing 2% glucose in 14 mL culture tubes. After 24 hours of growth at 30° C. in a shaker incubator (200 rpm), the OD600 of each sample was measured and cultures were back diluted to OD600=0.2 in fresh SD-Ura, the total volume of diluted culture was 9 mL. Each 9 mL culture was separated into 8 unique cultures by transferring 1 mL into 8 different wells of a 96 deep-well plate. Each well was used to evaluate the effect of a specific concentration of ligand. After all the cultures were transferred, 1 μL of stock ligand solution (each stock varying in concentration) was added to each well. The plate was sealed with an air-breathable polymer film and cultured with 1000 rpm shaking at 30° C. for 12 hours. Shaker humidity was maintained at 90%. Cells were harvested by centrifuge at 5000 g for 10 min, and after discarding the supernatant, the cells were suspended in 1 mL PBS buffer and centrifuged at 5000 g for 10 min. The cells were washed with 1 mL PBS buffer twice and resuspended in 1 mL DI water for flow cytometry analysis. For flow cytometry analysis, 50 μL of resuspended cells were transferred to a 96-well plate with flat bottom, adding DI water up to final volume 200 μL. The fluorescence intensity of cells within each sample was measured using a BD Accuri C6 flow cytometer equipped with auto-loading from 96 well plates. The forward scatter, side scatter, and GFP fluorescence (Ex/Em 488/533 nm) were recorded for a minimum of 10,000 events.

[2] = molecular target: T2, PYR1^DIAZI (Arabidopsis thaliana, UniProt O49686, A160V/E8G/F108Y/F159G/L87M/M158V/V81Y); experiment: cell-based; assay type: cell-based; conditions: for Bottom / Top: PYR1-DIAZI; for Bottom: fit bottom of GFP fluorescence response; for Top: fit top of GFP fluorescence response
T2 construct: expressed in transfected cells; host or cells: S. cerevisiae (2µ plasmid)
T2 sequence (O49686 1-191 E8G/V81Y/L87M/F108Y/M158V/F159G/A160V): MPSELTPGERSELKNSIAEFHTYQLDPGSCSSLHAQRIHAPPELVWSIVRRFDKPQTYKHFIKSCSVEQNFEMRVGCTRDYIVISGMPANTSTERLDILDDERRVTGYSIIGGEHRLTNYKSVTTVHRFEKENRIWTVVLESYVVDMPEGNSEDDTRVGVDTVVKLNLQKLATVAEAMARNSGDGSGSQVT
T2 sequence (Q9CAJ0 178-511 partner): T1 sequence (Q9CAJ0 178-511 partner)
Source text: as §1, §2, §3

Compound | EC50 [1] [nM] | Top [1] | EC50 [2] [nM] | Bottom [2] | Top [2]
CCOP(=S)(OCC)SCn1nnc2ccccc2c1=O [Azinphos, azinphos-ethyl] | 26900 | 104767 | 1120 | 19538 | 91584
CCOP(=S)(OCC)Oc1ccc2c(C)c(Cl)c(=O)oc2c1 [Coumaphos] | 2680 | 36298 | 772 | 23886 | 61154
